# The whole screen tested about 360,000 compounds, of which about 7,500 (2.1%) were called active. The inconclusive results got no clear call from the source; some entries with a clear call stand among them for comparison. The call rests on the fitted dose curve; in most records, active means well fitted cell-killing curve with a large enough effect; inconclusive means small, poorly fitted or top-dose-only effect, or effect the other way, or another doubt; inactive means no such curve, though single readings can be large or run the other way. No potency is given beside an inconclusive call; the fits are too rough.
# Test: qHTS for induction of synthetic lethality in tumor cells producing 2HG: qHTS for the HT-1080-IDH1KD cell line;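 on activity, negative = toxicity: 0% = DMSO wells and -100% = cell-free medium wells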
# Conditions: HT-1080 IDH1 knockdown viability, ATP luminescence, 48 h; activity, negative = toxicity: at 46.1 µM (top of the series) unless noted
# Procedure, shortened: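 Using the IDH1-knockdown HT-1080 line run in the same batch and compound series as the NT line, viability after 48 h at 37 °C was determined by CellTiter-Glo luminescence and expressed as % activity.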
# Potency means the concentration at half of the fitted maximal effect; tags describe the fitted curve by direction and shape.
SMILES,Potency,"activity, negative = toxicity"
Cc1ccc(C(=O)Nc2ccc3c(c2)CCC3)o1,"inconclusive [cytotoxic, single point]",
O=C1CC/C=C\C[C@@H](CC(=O)N(CCO)Cc2ccccc2)C(=O)NCCO1,,inactive: 2.64%
O=C(Nc1ccccc1)[C@@H]1CC=C[C@@H]2CCN(Cc3ccc(Cl)c(Cl)c3)C(=O)[C@@H]21,"inconclusive [cytotoxic, single point]",
COc1cccc2sc(Nc3nc(-c4cc5ccccc5oc4=O)cs3)nc12,active: 2.06 µM,
CSc1ccc(CN(C)C(=O)c2cc(S(=O)(=O)NCc3ccccc3)ccc2C)cc1,"inconclusive [cytotoxic, single point]",
COc1cc(CCC(=O)N2CCN(S(=O)(=O)c3ccc(C)c(C)c3)CC2)cc(OC)c1OC,"inconclusive [cytotoxic, partial curve]",
N#Cc1cn(CC(=O)NCC2CCCO2)c2ccccc12 (stereo not given),"inconclusive [rising, single point]",
Cc1ccc(-c2csc(NC(=O)c3c(C)noc3C)n2)s1,"inconclusive [cytotoxic, single point]",
COc1ccccc1N1CCN(Cc2nc(-c3ccc(F)cc3)oc2C)CC1,,inactive: -20.7%
CCOC(=O)c1nnc(-c2ccccc2)nc1Oc1ccc(Cl)cc1,"inconclusive [cytotoxic, single point]",
O=C(Nc1ccccc1SCC1CSc2nc3ccccc3c(=O)n21)c1cccc(Cl)c1 (stereo not given),"inconclusive [cytotoxic, partial curve]",
COc1ccc(NC(=S)N2CCC(c3nc4ccc(Cl)cc4[nH]3)CC2)c(OC)c1,"inconclusive [cytotoxic, single point]",
O=C(c1ccccc1-c1ccccc1)N1CCN(c2ccccn2)CC1,active: 6.51 µM,
CCCCc1n(CC(=O)c2ccc(Cl)cc2)c2ccccc2[n+]1C,"inconclusive [cytotoxic, partial curve]",
COC(=O)[C@@]1(Sc2ccc(C)cc2)CC(=O)N(c2ccccc2)[C@@H]1c1ccccc1,"inconclusive [cytotoxic, single point]",
COc1cccc(/C=N/NC(=O)CN(C)S(=O)(=O)c2ccccc2)c1OC,,inactive: -5.02%
Cc1ccccc1NS(=O)(=O)c1cc(C(=O)Nc2ccccc2-c2ccccc2)ccc1Cl,"inconclusive [cytotoxic, single point]",
CCCCc1ccc(S(=O)(=O)NC(=O)C2(C)CCN2C(=O)c2cccc(F)c2)cc1 (stereo not given),,inactive: 1.96%
CCOc1ccc2nc(SCC(=O)N3CCN(C(=O)c4ccco4)CC3)sc2c1,,inactive: -7.59%
CCc1cccc(NC(=O)Cn2cc(C=O)c3ccccc32)c1,active: 16.4 µM,
CCN(CC)CCNCC1C(=O)O[C@@H]2C[C@@]3(C)CCC[C@H](C)C3=C[C@H]12 (stereo not given in full),active: 16.4 µM,
Cc1oc(-c2ccc(Cl)cc2)nc1CS(=O)CC(=O)NCCCN1CC(C)CC(C)C1 (stereo not given),"inconclusive [cytotoxic, single point]",
CCN(c1ccccc1)S(=O)(=O)c1ccc(Cl)c(NC(=O)CN(C)C2CCN(C)CC2)c1,active: 23.1 µM,

SMILES,Potency,"activity, negative = toxicity"
Cc1ccc(NC(=O)Nc2ccc3c(c2)N(C)C(=O)CS3)nc1,"inconclusive [cytotoxic, single point]",
CCCCCCCCN1C(=O)[C@H](CC(=O)NCCC(C)C)C[C@@]2(C(=O)OCC)CCC=C12,"inconclusive [cytotoxic, single point]",
CN(C)/C=N/C1=C(C#N)C(c2cccs2)c2ccc3ccccc3c2O1 (stereo not given),active: 7.31 µM,
C/C(=N\NC(=O)c1cc(-c2ccc(C)s2)nc2ccccc12)c1cccnc1,"inconclusive [cytotoxic, single point]",
CCOc1cc(N2CCOCC2)c(OCC)cc1NC1=NCCCCC1,,inactive: 7.23%
C[C@H]1CN([C@@H](C)CO)S(=O)(=O)c2ccc(-c3ccccc3)cc2O[C@H]1CN(C)C(=O)C1CCC1,,inactive: -6.44%
Cc1ccc(/C=N\Nc2cn[nH]c(=O)c2Cl)cc1,,inactive: -10.3%
Cc1ccc(-c2nc3cc(NS(=O)(=O)c4ccc(C)cc4)ccc3o2)cc1,"inconclusive [cytotoxic, single point]",
COC(=O)c1ccc(/C=C/C(=O)c2cccc(OC)c2)cc1,active: 23.1 µM,
CC1CCN(c2ccc(C(=O)Nc3ccc4c(c3)OCO4)cc2[N+](=O)[O-])CC1,"inconclusive [cytotoxic, partial curve]",
O=C(Nc1ccc(Br)c2ccccc12)c1ccc2ccccc2c1O,"inconclusive [cytotoxic, single point]",
O=C(COC(=O)c1ccc2c(c1)OCCO2)NCc1ccc(Cl)cc1,"inconclusive [cytotoxic, single point]",
Cc1ccc2nc3n(c(=O)c2c1)-c1cc2ccccc2cc1C(=O)NC3Cc1ccccc1 (stereo not given),active: 14.6 µM,
CCC(C)(C(=O)NC1CCCC1)N(Cc1ccco1)C(=O)c1ccc2c(c1)OCO2 (stereo not given),,inactive: -6.83%
Cc1ccc(C2Oc3ccccc3C3=C2C(c2cccs2)n2ncnc2N3)cc1 (stereo not given),"inconclusive [cytotoxic, partial curve]",
CCOC(=O)N1CCN(C(=O)/C(=C/c2cccc3ccccc23)NC(=O)c2ccc(OC)cc2)CC1,"inconclusive [cytotoxic, single point]",
COc1ccc(Cn2ccnc2SCC(=O)NC2CCCC2)cc1,,inactive: -7.7%
COc1ccccc1NS(=O)(=O)c1ccc2nc(CCl)[nH]c2c1,"inconclusive [cytotoxic, single point]",
CN1c2ccccc2-c2nc3ccccc3n2C1c1cccs1 (stereo not given),"inconclusive [cytotoxic, partial curve]",
O=C(Nc1nc(-c2ccccn2)cs1)c1ccc(-c2ccccc2F)o1,"inconclusive [cytotoxic, partial curve]",
Cc1ccc(C(=O)NNC2=NCCC2)cc1,,inconclusive: -73%
COc1cccc(/C=C2\CCc3ccccc3C2=O)c1,"inconclusive [cytotoxic, single point]",

# Source: PubChem BioAssay AID686971 (National Center for Advancing Translational Sciences (NCATS), 2013)
